{"source": "patent US11975106B2", "about": "“Uses of halogenated xanthenes in oncology and virology” (Provectus Pharmatech, Inc., priority 2020, dated 2024)", "origin": "cited, not measured here", "tested_on": "COVID-19", "conditions": "patients hospitalized with COVID-19; cited from earlier work", "data": [{"smiles": "CCN(CCO)CCCC(C)Nc1ccnc2cc(Cl)ccc12", "note": "(stereo not shown) [hydroxychloroquine]", "values": [{"measurement": "benefit / effect on mortality", "value": "no benefits"}]}]}
